Test results taken from PubChem BioAssay (NCATS).
Inconclusive means that the source gave no clear call. Such entries were picked first, then a sample of the others. No potency is given beside an inconclusive call; the fits are too rough. Active and inactive are the calls of the source. Calls come from the whole dose curve; as a rule, active = well fitted cell-killing curve with a large enough effect; inconclusive = small, poorly fitted or top-dose-only effect; inactive = no such curve, though single readings can be large or run the other way.

test: qHTS of pediatric cancer cell lines to identify multiple opportunities for drug repurposing: Primary screen for NB1643 cells (AID 1347099); settings: NB1643 neuroblastoma viability, CellTiter-Glo luminescence, 48 h; series mostly up to 46 µM; note: nearly all actives have a fitted effect of over 50% in size
Procedure, shortened: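 Readout: CellTiter-Glo luminescence, 48 h treatment. Controls DMSO (neutral) and bortezomib 2.3 µM final (positive). Potency and efficacy taken from primary-screen concentration-response curves.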
Potency is the fitted concentration of half-maximal effect; tags give direction and shape of the fitted curve.

Row | SMILES | Potency
1 | C#CCOC(C(=O)OCCN(C)C)(c1ccccc1)c1ccccc1 | inactive
2 | CN1C(=O)CCS(=O)(=O)C1c1ccc(Cl)cc1 (stereo not drawn) | inactive
3 | O=[N+]([O-])c1ncc[nH]1 | inconclusive [cytotoxic, partial curve, poor fit]
4 | O=C1CCC[C@@H]2[C@H]3CCCN4CCC[C@@H](CN12)[C@@H]34 | inactive
5 | CC(=O)Nc1cc([As](=O)(O)O)ccc1O | inactive
6 | Cc1ncc(CNC(=O)N(CCCl)N=O)c(N)n1 | inactive
7 | CCN1C[C@]2(OC(=O)c3ccccc3NC(C)=O)CC[C@H](OC)[C@@]34[C@H]5CC6[C@@H](OC)C[C@](O)(C(C[C@@H]23)[C@@H]14)[C@@]5(O)[C@@H]6OC | inconclusive [cytotoxic, single point]
8 | COC(=O)[C@@H](N)CCCN/C(N)=N/[N+](=O)[O-] | inactive
9 | CC[C@@H](C(N)=O)N1CCCC1=O | inconclusive [cytotoxic, single point]
10 | CC(=O)Nc1ccc(OC[C@](C)(O)C(=O)Nc2ccc([N+](=O)[O-])c(C(F)(F)F)c2)cc1 | inconclusive [cytotoxic, single point]
11 | COc1cc(OC)c(OC)cc1C=O | inactive
12 | CCN(CC)C(=O)N[C@@H]1C=C2c3cccc4[nH]cc(c34)C[C@@H]2N(C)C1 | inactive
13 | CCC1(C2=NCCN2)Cc2ccccc2O1 (stereo not drawn) | inactive
14 | COCC1(CO)C(=O)C2CCN1CC2 (stereo not drawn) | active: 5.9 µM
15 | CC(C)C[C@H](CN)CC(=O)O | inconclusive [cytotoxic, partial curve]
16 | CC1COC2(c3ccccc3Cl)c3cc(Cl)ccc3NC(=O)CN12 (stereo not drawn) | inactive
17 | CC[C@@H](CO)NC(=O)[C@@H]1C=C2c3cccc4c3c(cn4C)C[C@H]2N(C)C1 | inconclusive [cytotoxic, single point]
18 | c1cc2c(cc1[C@H]1OC[C@H]3[C@H]1CO[C@H]3c1ccc3c(c1)OCO3)OCO2 | inactive

test: qHTS of pediatric cancer cell lines to identify multiple opportunities for drug repurposing: Primary screen for LAN-5 cells (AID 1347100); settings: LAN-5 neuroblastoma viability, CellTiter-Glo luminescence, 48 h; series mostly up to 46 µM
Procedure, shortened: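 Cells (500-1,000/well) in growth media were settled 5 h at 37 degrees C, then given compounds for 48 h. Viability was read as CellTiter-Glo luminescence. Primary runs used MIPE at 11 points (0.78 nM-46 µM) and NPC at 8 points (0.59 nM-46 µM); follow-ups used 11 points.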

Row | SMILES | Potency
19 | C#CCOC(C(=O)OCCN(C)C)(c1ccccc1)c1ccccc1 | inactive
20 | Cc1ncc(CNC(=O)N(CCCl)N=O)c(N)n1 | inactive
21 | CC(=O)Nc1ccc(OC[C@](C)(O)C(=O)Nc2ccc([N+](=O)[O-])c(C(F)(F)F)c2)cc1 | inactive
22 | C=C1CC[C@@]2(O)[C@H]3Cc4ccc(O)c5c4[C@@]2(CCN3CC2CC2)[C@H]1O5 | inactive
23 | CCCC(C)C1(CC)C(=O)N=C(S)NC1=O (stereo not drawn) | inactive
24 | N#C[C@H](O[C@@H]1O[C@H](CO[C@@H]2O[C@H](CO)[C@H](O)[C@H](O)[C@H]2O)[C@H](O)[C@H](O)[C@H]1O)c1ccccc1 | active: 23.5 µM
25 | CC1COC2(c3ccccc3Cl)c3cc(Cl)ccc3NC(=O)CN12 (stereo not drawn) | active: 6.68 µM
26 | CC[C@@H](CO)NC(=O)[C@@H]1C=C2c3cccc4c3c(cn4C)C[C@H]2N(C)C1 | inconclusive [cytotoxic, single point]
27 | c1cc2c(cc1[C@H]1OC[C@H]3[C@H]1CO[C@H]3c1ccc3c(c1)OCO3)OCO2 | inactive
28 | O=C(O)c1ccc(=O)[nH]c1 | inactive
